Reference: PubChem BioAssay AID179 (DTP/NCI, 2004)
Some entries of the source have several records that differ or are many. The list is limited to them. There may be further records. Values that stand side by side are repeats in other runs, samples, wells, individuals or studies. Records carry a tag for their origin. Letters count within one entry.

Tested on: CEM cells HIV-1 protection, formazan growth assay
Experiment: NCI AIDS Antiviral Assay
Settings: measured here: growth of uninfected CEM cells
Summary of the method: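 Protection of CEM cells against HIV-1 was scored from cell growth (soluble formazan) across five concentrations, with parallel uninfected cells. Lack of protection may reflect toxicity.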

SMILES	IC50
O=S1Cc2nc3ccccc3n2C1c1c(F)cccc1F (configuration not stated)	9.33 µM [sample A] and > 117 µM [sample B]
Cc1nc2c(Br)cc(Br)cc2c(=O)n1-c1ccccc1NC1OCC(O)C(O)C1O (configuration not stated)	67.6 µM [sample A] and 3.09 µM [sample B]
